Laboratory results as given in PMC11082251.
No constants are given. Whether binding was seen depends on the method and setting. For part of these data: Binding seen in cells or lysates may run through a third protein. Some binding calls cover weakened binding; strength is not graded here. Values belong to the substance of their own block, whether it stands above or below them.

Chains of the proteins cited; added tags and fusions are not shown. Lines headed by an entry give the natural chain unless they say otherwise; changes in a name come on top. A line that says so, or that is headed by a name, gives the form on record, which may keep a tag or linker. Residues count along the entry.
UniProt Q04206: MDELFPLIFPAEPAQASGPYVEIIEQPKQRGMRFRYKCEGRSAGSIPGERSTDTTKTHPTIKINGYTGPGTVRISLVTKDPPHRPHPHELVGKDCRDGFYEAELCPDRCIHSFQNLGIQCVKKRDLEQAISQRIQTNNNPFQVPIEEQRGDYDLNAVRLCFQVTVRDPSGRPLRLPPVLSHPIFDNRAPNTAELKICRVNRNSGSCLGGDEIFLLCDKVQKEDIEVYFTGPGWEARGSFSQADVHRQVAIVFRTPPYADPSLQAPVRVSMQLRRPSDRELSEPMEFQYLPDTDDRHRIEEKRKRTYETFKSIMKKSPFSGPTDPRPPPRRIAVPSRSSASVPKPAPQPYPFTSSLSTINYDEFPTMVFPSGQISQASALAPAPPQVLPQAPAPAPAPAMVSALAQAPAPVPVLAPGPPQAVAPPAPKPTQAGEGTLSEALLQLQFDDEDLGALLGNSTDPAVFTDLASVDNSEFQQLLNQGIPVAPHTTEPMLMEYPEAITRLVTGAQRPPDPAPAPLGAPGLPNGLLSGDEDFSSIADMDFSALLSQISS
Flag-CLK2 (CDC-like kinase 2) (P49760, form named): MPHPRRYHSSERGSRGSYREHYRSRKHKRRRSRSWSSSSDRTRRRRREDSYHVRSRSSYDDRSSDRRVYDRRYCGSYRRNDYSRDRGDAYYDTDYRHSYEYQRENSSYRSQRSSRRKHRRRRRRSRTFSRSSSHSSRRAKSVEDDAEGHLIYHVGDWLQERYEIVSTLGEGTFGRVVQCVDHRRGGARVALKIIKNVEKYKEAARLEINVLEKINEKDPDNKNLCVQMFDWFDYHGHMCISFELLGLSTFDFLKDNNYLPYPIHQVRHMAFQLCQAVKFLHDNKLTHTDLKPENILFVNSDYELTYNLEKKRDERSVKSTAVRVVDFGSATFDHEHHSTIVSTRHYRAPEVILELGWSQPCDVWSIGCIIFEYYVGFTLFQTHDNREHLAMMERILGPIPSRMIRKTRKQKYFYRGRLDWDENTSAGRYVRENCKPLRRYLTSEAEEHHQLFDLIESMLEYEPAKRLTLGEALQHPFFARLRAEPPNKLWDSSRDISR
Flag-CLK2^K192R (CLK2 kinase-dead mutant) (P49760, form named): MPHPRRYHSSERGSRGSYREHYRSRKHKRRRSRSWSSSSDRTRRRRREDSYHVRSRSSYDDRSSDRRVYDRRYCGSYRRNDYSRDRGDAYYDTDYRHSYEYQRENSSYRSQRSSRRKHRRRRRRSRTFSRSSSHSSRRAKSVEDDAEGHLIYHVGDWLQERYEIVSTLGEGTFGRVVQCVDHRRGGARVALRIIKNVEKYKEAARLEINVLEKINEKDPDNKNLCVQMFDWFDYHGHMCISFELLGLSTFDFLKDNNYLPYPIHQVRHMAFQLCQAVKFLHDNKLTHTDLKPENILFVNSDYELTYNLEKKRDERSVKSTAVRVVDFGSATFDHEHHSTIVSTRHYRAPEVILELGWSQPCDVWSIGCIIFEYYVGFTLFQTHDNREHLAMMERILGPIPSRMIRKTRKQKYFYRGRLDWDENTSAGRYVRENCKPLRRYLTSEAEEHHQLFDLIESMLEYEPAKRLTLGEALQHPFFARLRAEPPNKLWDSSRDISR
UniProt P25963: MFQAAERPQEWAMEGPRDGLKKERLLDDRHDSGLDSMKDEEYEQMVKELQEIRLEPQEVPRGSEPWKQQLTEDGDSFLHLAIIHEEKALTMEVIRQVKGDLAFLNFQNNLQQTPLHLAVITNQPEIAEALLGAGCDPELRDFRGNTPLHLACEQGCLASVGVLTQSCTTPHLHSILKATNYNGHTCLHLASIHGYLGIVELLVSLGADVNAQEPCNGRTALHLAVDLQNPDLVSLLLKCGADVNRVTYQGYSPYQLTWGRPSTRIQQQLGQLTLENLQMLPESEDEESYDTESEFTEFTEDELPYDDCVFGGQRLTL
UniProt P19838, residues 1-433: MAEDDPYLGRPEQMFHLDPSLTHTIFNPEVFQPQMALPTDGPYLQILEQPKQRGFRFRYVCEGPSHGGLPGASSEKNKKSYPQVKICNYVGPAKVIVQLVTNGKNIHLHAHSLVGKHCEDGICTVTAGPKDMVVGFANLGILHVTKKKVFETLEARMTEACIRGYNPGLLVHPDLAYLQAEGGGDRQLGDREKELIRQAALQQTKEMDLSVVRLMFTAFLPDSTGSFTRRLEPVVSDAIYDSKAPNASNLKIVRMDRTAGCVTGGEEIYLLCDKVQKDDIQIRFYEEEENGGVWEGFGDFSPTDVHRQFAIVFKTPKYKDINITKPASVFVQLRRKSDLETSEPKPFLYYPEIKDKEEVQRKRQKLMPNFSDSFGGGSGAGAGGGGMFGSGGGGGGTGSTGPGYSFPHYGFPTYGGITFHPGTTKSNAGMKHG
UniProt O14980: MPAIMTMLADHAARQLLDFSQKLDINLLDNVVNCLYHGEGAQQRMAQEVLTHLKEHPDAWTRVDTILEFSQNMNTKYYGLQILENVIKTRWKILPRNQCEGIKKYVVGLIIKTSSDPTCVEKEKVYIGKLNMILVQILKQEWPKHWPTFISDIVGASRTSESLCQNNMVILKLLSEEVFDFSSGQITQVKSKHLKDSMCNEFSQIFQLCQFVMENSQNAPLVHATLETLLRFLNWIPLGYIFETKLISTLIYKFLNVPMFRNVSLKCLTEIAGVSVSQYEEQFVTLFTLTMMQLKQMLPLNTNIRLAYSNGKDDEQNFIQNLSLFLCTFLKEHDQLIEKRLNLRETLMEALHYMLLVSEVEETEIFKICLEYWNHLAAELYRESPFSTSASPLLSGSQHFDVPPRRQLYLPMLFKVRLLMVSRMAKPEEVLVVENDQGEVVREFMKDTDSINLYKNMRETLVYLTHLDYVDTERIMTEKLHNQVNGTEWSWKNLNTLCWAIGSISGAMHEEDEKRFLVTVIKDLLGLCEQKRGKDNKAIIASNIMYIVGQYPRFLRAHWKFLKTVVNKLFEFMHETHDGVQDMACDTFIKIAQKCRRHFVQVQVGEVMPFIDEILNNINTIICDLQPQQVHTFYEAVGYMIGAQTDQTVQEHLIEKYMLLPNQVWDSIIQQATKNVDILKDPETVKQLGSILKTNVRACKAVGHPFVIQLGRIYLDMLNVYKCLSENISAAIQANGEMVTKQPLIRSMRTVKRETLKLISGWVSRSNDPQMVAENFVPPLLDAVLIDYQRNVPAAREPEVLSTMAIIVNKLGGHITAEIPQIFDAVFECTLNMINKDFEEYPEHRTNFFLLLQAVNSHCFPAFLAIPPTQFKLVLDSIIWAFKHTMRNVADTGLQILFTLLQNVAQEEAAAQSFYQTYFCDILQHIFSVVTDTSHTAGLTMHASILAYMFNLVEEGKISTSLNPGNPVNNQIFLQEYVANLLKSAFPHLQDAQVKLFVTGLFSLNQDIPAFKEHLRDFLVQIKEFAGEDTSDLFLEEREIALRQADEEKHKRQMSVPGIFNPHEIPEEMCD

What was measured:
[1] = target: endogenous p65 (RelA/p65), wild type (human (endogenous in HEK293T)) (UniProt Q04206); assay: co-IP; endogenous proteins in p65^+/+, p65^S180D/KI, p65^S180A/KI and CLK2^−/− HEK293T cells, in the presence or absence of TNF-α stimulation; results normalised to total p65
[2] = target: p65^S180D/KI (p65 S180D from knock-in HEK293T cells) (human (endogenous in HEK293T)) (UniProt Q04206); assay: as above
[3] = target: p65^S180A/KI (p65 S180A from knock-in HEK293T cells) (human (endogenous in HEK293T)) (UniProt Q04206); assay: as above
[4] = target: Flag-tagged CLK2 from knock-in HEK293T cells (CLK2^Flag/KI) (human (endogenous in HEK293T)) (UniProt P49760); assay: co-IP; CLK2^Flag/KI HEK293T cells, Flag antibody, in the presence or absence of SeV and TNF-α stimulation for different times; NP40 lysis buffer
[5] = target: Flag-CLK2 (CDC-like kinase 2) (UniProt P49760); assay: co-IP; HEK293T cells transfected with HA-p65 and Flag-CLK2 or Flag-CLK2^K192R, with or without TG003 (20 μM); NP40 lysis buffer (50 mM Tris-HCl pH 8.0, 150 mM NaCl, 0.5–1.0% NP40), indicated antibodies and Protein A or G beads, 4 °C overnight
[6] = target: Flag-CLK2^K192R (CLK2 kinase-dead mutant) (UniProt P49760); assay: as above
[7] = target: Flag-CLK2 (CDC-like kinase 2) (UniProt P49760); assay: pull-down; purified His-p65 and Flag-CLK2 (or Flag-CLK2^K192R) incubated in lysis buffer for 4 h at 4 °C, washed three times with lysis buffer, western blotting; both purified
[8] = target: Flag-CLK2^K192R (CLK2 kinase-dead mutant) (UniProt P49760); assay: as above
[9] = target: p65^S180D, exogenously expressed (UniProt Q04206); assay: co-IP; exogenous coimmunoprecipitation of p65^S180D and IκBα (Supplementary Fig. 6h)

binding [3]: binds
Substance: endogenous IκBα (from UniProt P25963 1-317)

binding [4]: binds
Substance: endogenous p65 (RelA/p65), wild type (from UniProt Q04206 1-551)

binding [5]: binds
binding [6]: no binding
Substance: HA-p65 (RelA/p65 subunit of NF-κB) (from UniProt Q04206 1-551)

binding [7]: binds
binding [8]: no binding
Substance: His-p65 (from UniProt Q04206 1-551)

Second part, the substance before the results:

Substance: endogenous p50 (NF-κB p105/p50) (from UniProt P19838 1-433)
binding [1]: binds
binding [2]: binds

Substance: IκBα, exogenously expressed (from UniProt P25963 1-317)
binding [9]: binds

Substance: endogenous nuclear export protein CRM1 (from UniProt O14980 1-1071)
binding [1]: binds
binding [3]: binds
binding [2]: binds
